Test results published in the supplement of paper PMC11417369.
This is one part of the list.

These sequences were tested on PfHDP1 homeodomain (GST-tagged) (assay: gcPBM binding intensity (ln(normalized median fluorescence intensity)); higher = stronger DNA binding).
In short: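 The highest Masliner-normalised natural-log median intensity across replicate spots of either probe orientation is reported as binding intensity. GST-tagged P. falciparum DNA-binding domains expressed in E. coli were applied for 1 h to an Agilent 4 × 180k array of primer-extended double-stranded 36-bp intergenic genomic probes plus negative controls, and bound protein was detected with Alexa488 anti-GST antibody and scanned at 488 nm.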

Sequence	gcPBM binding intensity (ln)
GCCTATATGTTTAGTTGTACTCCTAATATTATTTGT [XGTACX_site6060]	6.91
CAAATTATTTCGAGGTGTACTTTTTTATATTATATT [XGTACX_site8309]	6.36
CCTAATTTTTTTAGTTGTACTTTTTTTTTTTTTTAT [XGTACX_site7948]	6.24
CACGAAAAAAAAAAATGTACATAAAAATATGATACA [XGTACX_site2536]	6.22
TCTCATTTCAACAACAGTACATATCTATCTGTGTAT [XGTACX_site6897]	6.41
AAAAAAAAAAAAAAAAAAAAAGGACGGATGGATGGA [GTGCAC_negctrl_site527]	6.88
GAAAGAGAAATATATACACACATATTTATATTTTTA [CACACA_site2066]	6.23
ATACGTATATAATATACATGCATATATAGCACATAC [TGCATGCA_site376]	7.28
ATAAAAAAAAAAAAAAATGAAGCATCACCGTGTAAT [XGTACX_negctrl_site288]	6.39
AATTATATATTATCATGTACAAATATAGTAATACAA [XGTACX_site6845]	6.37
AAATTATAAGTAAAAAGTACTTAATATATAATAAAC [XGTACX_site6065]	6.68
CTTATACTTCTACATCGTACAAAAGATGGTATAATT [XGTACX_site2698]	6.23
AAAAAAAAAAAAAATAGTACGTAACTATAATTTCCT [XGTACX_site2457]	6.36
TATAATTTTTTTTGGGTGCTTGGGTAAATTTTATTA	7.1
TAACTTAAATAATACATACACACATGTACATACAGA [CACACA_site1594]	6.45
ATTGTGGCAATATATTGTACATGTAATATAAATATA [XGTACX_site5415]	6.66
AATTAAAATATATATATACACACGTAATTATATATA [CACACA_site3819]	6.39
AAAAAAAAAAAAATAGGTACGTAAATATTTCTTTAA [XGTACX_site6423]	6.15
TCTTTTAGTTTTATCCACATAATAAAAAGCAAAAAA [GTGCAC_negctrl_site368]	6.28
TATTCTTCAATTTAAAGTACAAAAATTACTATACTT [XGTACX_site6599]	6.17
AAAAAAAAAAAAAAGAGTACTTTTTTCTCATTACTA [XGTACX_site8353]	6.14
AAATATATATGAAGATGTACATATATATATGTAAAT [XGTACX_site4039]	6.45

Sequence	gcPBM binding intensity (ln)
TAACACTTATAAAAAAGTACTGATGAAATAATACTA [XGTACX_site7305]	5.91
AAAAATTCCAGACACACACACACATATAAATAAATA [CACACA_site1232]	6.73
AGAACCATATATAAATGTACATGTTAATATGAATAA [XGTACX_site130]	6.54
GGACAAAAAAAAAAAATAAAATAAAAATAAATAAAT [XGTACX_negctrl_site106]	5.93
TATAATTATATTTGGAGTACAAATTTTTTTTTTTTT [XGTACX_site7494]	6.35
AAAAAAAAAGGTAACGCATGCTTTTAGATTATATTA [TGCATGCA_site398]	5.93
AAGTATGCTTGCTACTTATTAAGTGGCAATATAATT [XGTACX_negctrl_site74]	6.19
TGTTAATAAAGGTGTACACAAAATAAAAAAAATTAT [CACACA_site4288]	7.2
TTTGTATAGTTGTAGGTGCATATCATTTTTAAATGT [GTGCAC_site9708]	9.34
AATAAAAAAATAGAAACACACATTAAAAAAAATAAA [CACACA_site1333]	6.66
ATGATATATAGACACACACACATATTTATATACATT [CACACA_site6404]	6.78
CTTTTTAATAAATATACACACACAAAAAAAAAAAAA [CACACA_site9316]	6.54
TATTCAAAGAAAGACAGTACGTGTAGCAAACAACCT [XGTACX_site4218]	6.66
ACTTACTAATTAATGGGTACATACACACATATATAC [XGTACX_site1362]	6.84
CACTTTATACGTAATTGTACTTTTTCTTTTTTTTAT [XGTACX_site3175]	6.58
TAAATAAAGTATAATGCATGCTATTATAATATTAAT [TGCATGCA_site825]	6.51
ATAACAAAATAAAACACACACACAAATGTACATATA [CACACA_site2425]	7.17
CATATACACCAACACACACACACACCCACAAAAAAA [CACACA_site496]	7.48
AAATAAATAATTTAATGTACATATATAATATATATA [XGTACX_site1831]	6.81
TATTTTTCCATATGCACACACACCGTATATATAATA [CACACA_site1127]	10.1
AAAAAGAATGTGAACACACACATTGAATCTAATTTA [CACACA_site6711]	6.02
TATTAAACGAAACACACACACACACCCATATATAAA [CACACA_site759]	7.04

Sequence	gcPBM binding intensity (ln)
GATAATTATGGACACACACACACACCCACAACTAAA [CACACA_site8824]	6.84
ACATATAATATATATATATATATATATATATATAAT [GTGCAC_negctrl_site648]	7.26
TATATAAAAAATTCAATACACACCATATATAAATAT [CACACA_site3987]	6.64
AGATGATATATTATATATCCTTTTAATAAATGTAAT [CACACA_negctrl_site730]	6.07
CTATTTATTATATATACATGCATATATATATTAATA [TGCATGCA_site527]	6.35
TATTCATATTTAAAGGTGCAATATTTATTTTGTACA	9.16
TATTCTAATTTTTAAACACACAAATATAAATAAGTA [CACACA_site3149]	6.35
TAAAAATGTGTATGTACACACTTTATTTTTAATACA [CACACA_site7235]	6.23
TATAATTATTTTTTTCTAAATATTATAAGGTATTCA [GTGCAC_negctrl_site205]	5.78
ATTTTTTTTTTTTTTTTTTTTTTTTAGATTAAGAAA [CACACA_negctrl_site1272]	5.81
AAATAAAATAAAATAAAATAAAATTCTTTGATACCT [TGCATGCA_negctrl_site604]	6.15
TAATAGAATATGATGGTGCAGCAGTCTTATTTTTCA	7.17
TTTCTTTCTTCACATATATATATATATATATTTATA [TGCATGCA_negctrl_site341]	7.33
TACATATAATATATTGCACACGTCAGAATAATATAG [CACACA_site1744]	10.3
CCCCCCCACGGACACACACACATACATACCACATAT [CACACA_site5303]	8.24
TTTTATAATATTTAAAGTACATTCTAAAAATATAAT [XGTACX_site8033]	6.01
TTAGCCATTAATTCTCTACACACCTTTATGTTATTT [CACACA_site9212]	6.66
ATAACCACATAAAATATAATTATATATATATATATA [CACACA_negctrl_site603]	9.04
TGGCACTAAAAAAATAAACACACAGATTTATATAAT [CACACA_site8386]	6.51
CCTGAAATTTTATTATGTACATATTATAAAATGATT [XGTACX_site1434]	6.75
ATTCCTCCCATGGAATGTACTCATCAAATAAATAAA [XGTACX_site6543]	6.08
TACACCATGATACATACACACAGACATATACTCATT [CACACA_site4708]	6.94

Sequence	gcPBM binding intensity (ln)
TCCAAATGTTTGCGTTGTACTCTTTTTTTAAAACTA [XGTACX_site5148]	6.86
TAATTAAAATTAAGAAGTACATTTTACTTTTAATGC [XGTACX_site5120]	6.16
AAAAAATACTTATAAAGTACTAATATATATAAGCAG [XGTACX_site743]	6.49
AATACAAACCAAAAAGTAAATACATCAACATGATCA [CACACA_negctrl_site140]	6.26
GAGAAATTTATACATACACACATATATATATTATAT [CACACA_site4038]	6.66
TATCATGTTTTTATGGTGCATGAAATCACACATTGA	8.41
TTTATTAATAAGAAATGTACACAAAATTATTTCCAA [XGTACX_site5970]	5.95
ATAGAGTCATTCCTCACACACACGCTATATGAATAG [CACACA_site2047]	6.73
TAAAAAATGATAGAAGTGCATAAAATAATATATATA [GTGCAC_site9904]	9.06
ATATAATAAATATATTGTACATATGAATCTACTAAA [XGTACX_site7610]	6.28
AAAAAATTCCTATATACACACACGCACATATTTATA [CACACA_site6192]	7.2
GACTTGAAGAAATAAGTGCAGAGTTTTATTTTAATT [GTGCAC_site9912]	6.96
TTTCTATTTCCTTCACATCTTTTCATCTTTTTTTTT [CACACA_negctrl_site1110]	7.07
TATTTTTTCCTTTGTTTTTTAAACTATCTTAACTAA [XGTACX_negctrl_site519]	6.37
AAATAAATAAAAAACACACACAAATAAATAAATATA [CACACA_site2249]	6.72
AAATTTTCATGTGTTGCATGCTGAACTATTTTATCA [TGCATGCA_site856]	6.64
AATAAAAAGGAAAGGTATATGTGTGCCCTTGTGTTA [TGCATGCA_negctrl_site83]	6.72
AAGGAATATATATACATACACACATATATATATATA [CACACA_site1665]	9.33
AGTGGATGAGGACATACACACACACCGAAGTTGATA [CACACA_site9132]	6.12
AAAAAAAAAAAAAAAAAAAAAAATATATATATATAT [XGTACX_negctrl_site33]	9.14
AAAAAAAAAAAAACTACACACATACAAATATTTATA [CACACA_site5430]	6.6
AGTATACTCGGACACACACACACATATATATATATA [CACACA_site5031]	9.14
